{"source": "PubChem BioAssay AID1345082", "about": "(National Center for Advancing Translational Sciences (NCATS), 2018)", "note": "About 4,000 (4.3%) of roughly 94,000 compounds were called active. This list was built around the results that the source calls inconclusive (neither active nor inactive); the mix of calls is not that of the screen. Calls come from the whole dose curve; as a rule, active = well fitted inhibition curve with a large enough effect; inconclusive = small, poorly fitted or top-dose-only effect; inactive = no such curve, though single readings can be large or run the other way. Where the call is inconclusive, the potency comes from a doubtful curve fit. Potency is the fitted concentration of half-maximal effect; tags give direction and shape of the fitted curve."}
{"assay": "Cytotoxic Profiling in NIH 3T3 Cell Line of Diverse Libraries Using Quantitative High-Throughput Screening; note: nearly all actives have a fitted effect of over 55% in size", "details": "NIH 3T3 viability, CellTiter-Glo ATP luminescence, 48-72 h; series mostly up to 96.7 µM", "procedure,_shortened": "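ATP-dependent luminescence (CellTiter-Glo) served as the viability signal for NIH 3T3 cells treated with compound for 48 or 72 hr at 37 °C.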"}
{"smiles": "COc1ccc(-c2noc([C@@H]3Cc4nc[nH]c4CN3C(=O)c3cccs3)n2)cc1", "Potency": "inconclusive: 100 µM [inhibitor, partial curve, poor fit]"}
{"smiles": "O=C(NC1CC1)[C@@H]1C[C@H](Oc2cccnc2)CN1C(=O)COc1ccccc1", "Potency": "inactive"}
{"smiles": "COc1ccc(-c2cc(C[C@H]3CNCC[C@H]3CC(=O)NCc3ccc(OC)c(OC)c3)no2)cc1", "Potency": "inconclusive: 56.2 µM [inhibitor, partial curve, poor fit]"}
{"smiles": "COc1ccc(Cl)cc1CN(C)c1cc(C2CC(N)C2)ncn1", "note": "(centres undefined)", "Potency": "inconclusive: 44.7 µM [inhibitor, partial curve, poor fit]"}
{"smiles": "Cc1cc(C(=O)N2CCn3nc(C(C)O)cc3C2)c2ccc(F)cc2n1", "note": "(centres undefined)", "Potency": "inconclusive: 39.8 µM [inhibitor, single point]"}
{"smiles": "CC[C@H]1CN(C(=O)c2ccc(F)cc2)CC[C@H]1CC(=O)N1CCC(C(=O)OC)CC1", "Potency": "inconclusive: 89.1 µM [inhibitor, partial curve, poor fit]"}
{"smiles": "COCCc1noc(CC2CCOC3(CCN(C(=O)c4ccc(OC)cc4)CC3)C2)n1", "note": "(centres undefined)", "Potency": "inactive"}
{"smiles": "COc1ccc(C(=O)N2CC[C@H](CO)[C@H](NC(=O)C3CC3)C2)cn1", "Potency": "inactive"}
{"smiles": "Cc1nn2c(c1-c1ccccc1[S+](C)(=O)[O-])N(C(=O)c1cccc(Cl)c1)CCC2", "Potency": "inconclusive: 112 µM [inhibitor, single point]"}
{"smiles": "COCCCNc1ncccc1-c1cc(-c2ccccc2)nc2c(C)noc12", "Potency": "inconclusive: 79.4 µM [inhibitor, partial curve, poor fit]"}
{"smiles": "O=C1CC2(CCN(C(=O)c3ccc(Cl)cc3)CC2)Oc2ccccc2N1", "Potency": "inactive"}
{"smiles": "Cn1nc(C(=O)N2CCC3(CC2)N=C(c2cccc(Br)c2)NO3)c2ccccc21", "Potency": "inconclusive: 50.1 µM [inhibitor, partial curve, poor fit]"}
{"smiles": "COCCN1C(=O)CS(=O)(=O)C12CCN(C(=O)c1cccc(OC)c1)CC2", "Potency": "inactive"}
{"smiles": "CC(CCn1cccn1)NC(=O)c1ccc(OC2CCN(S(=O)(=O)N(C)C)CC2)cc1", "note": "(centres undefined)", "Potency": "inactive"}
{"smiles": "CN1c2cc(C(=O)N3CCN(c4ccccc4)CC3)ccc2C(=O)N2CCCCCC21", "note": "(centres undefined)", "Potency": "inconclusive: 28.2 µM [inhibitor, full curve, poor fit]"}
{"smiles": "Cc1cnc(C(=O)N2CCCCCCn3c(nnc3-c3ccc(F)cc3)CC2)cn1", "Potency": "inconclusive: 50.1 µM [inhibitor, partial curve, poor fit]"}
{"smiles": "O=C(CCC1CCCC1)N1CCCC(c2noc(COc3ccccc3F)n2)C1", "note": "(centres undefined)", "Potency": "inconclusive: 44.7 µM [inhibitor, partial curve, poor fit]"}
{"smiles": "Cc1nn(C)c(C)c1CN(Cc1cnc(N2CCCCC2)nc1)C1CC1", "Potency": "inconclusive: 28.2 µM [inhibitor, partial curve]"}
{"smiles": "Cc1ccc(CC(=O)N2CCCN(c3cc(-c4ccc(C)c(C)c4)[nH]n3)CC2)cc1", "Potency": "active: 31.6 µM"}
{"smiles": "O=C1CC2(CCN(Cc3ccccc3)CC2)Oc2cc(Cl)ccc21", "Potency": "inconclusive: 50.1 µM [inhibitor, partial curve, poor fit]"}
{"smiles": "Cc1cnc(CCNS(=O)(=O)c2cccc(F)c2)n1Cc1ccc(F)cc1", "Potency": "inconclusive: 44.7 µM [inhibitor, partial curve, poor fit]"}
{"smiles": "Cc1ccc(C(CC(=O)N2CCc3ccccc3C2)c2cn(C)c3ccccc23)cc1", "note": "(centres undefined)", "Potency": "inconclusive: 50.1 µM [inhibitor, partial curve, poor fit]"}
{"smiles": "N#Cc1ccc(S(=O)(=O)N2C[C@@H](Oc3ccccc3)C[C@H]2C(=O)N2CCOCC2)cc1", "Potency": "inactive"}
{"smiles": "COc1cccc(CNC(=O)c2nn(C)c3nc(-c4ccccc4OC)ccc23)c1", "Potency": "inactive"}
{"smiles": "Cc1ccc2nc([C@H]3CCN(Cc4ccc(C(F)(F)F)cc4)C3)[nH]c2c1", "Potency": "active: 35.5 µM"}
{"smiles": "Cn1ccc2c(C(=O)NCc3cccnc3)nc(-c3cncnc3)cc21", "Potency": "active: 44.7 µM"}
{"smiles": "Cc1ccc(-c2cc(C(=O)NCc3c(C)cc(C)[nH]c3=O)c3c(c2)N(C(C)C)CCO3)cc1", "Potency": "inconclusive: 50.1 µM [inhibitor, partial curve, poor fit]"}
{"smiles": "CCN1c2cc(C(=O)Nc3cccc4c3CCCC4)ccc2C(=O)N2CCCCCC21", "note": "(centres undefined)", "Potency": "inconclusive: 50.1 µM [inhibitor, partial curve, poor fit]"}
{"smiles": "CC1(COCC2CC2)COc2ccc(C(=O)NCc3cccc(F)c3)cc2N1", "note": "(centres undefined)", "Potency": "inconclusive: 56.2 µM [inhibitor, partial curve, poor fit]"}
{"smiles": "CC(C)(C)OCC(O)CN1CCC(=O)N(Cc2ccccc2)Cc2sccc21", "note": "(centres undefined)", "Potency": "inconclusive: 44.7 µM [inhibitor, partial curve, poor fit]"}
{"smiles": "Cc1ccsc1C(=O)C1CCCN(Cc2cc(F)ccc2-n2cccn2)C1", "note": "(centres undefined)", "Potency": "inconclusive: 50.1 µM [inhibitor, partial curve, poor fit]"}
{"smiles": "Cc1ccc(-c2ccccc2CN2CCN(C(=O)c3ccccc3Cl)CC2)cc1Cl", "Potency": "active: 39.8 µM"}
{"smiles": "Cn1c(C(=O)N2CCN(c3ccccn3)CC2)nc2nc(-c3ccccc3)c(Cl)cc21", "Potency": "inconclusive: 56.2 µM [inhibitor, partial curve, poor fit]"}
{"smiles": "O=C(Nc1ccccc1)N1CCC(C(=O)N2CCC(c3ccccc3)CC2)CC1", "Potency": "inconclusive: 50.1 µM [inhibitor, partial curve, poor fit]"}
{"smiles": "Cc1cccc(NC(=O)C2CC(=O)N(c3n[nH]c4cc(Br)ccc34)C2)c1C", "note": "(centres undefined)", "Potency": "inactive"}
{"smiles": "COc1ccccc1-c1cc(C(=O)Nc2cccc(C(F)(F)F)c2)c2cnn(C)c2n1", "Potency": "inconclusive: 12.6 µM [inhibitor, full curve, poor fit]"}
{"smiles": "COc1ccc(CCC(=O)N2CCCCCCNC(=O)[C@@H]3CCCC[C@@H]32)cc1", "Potency": "inconclusive: 50.1 µM [inhibitor, partial curve, poor fit]"}
{"smiles": "Cc1ccc(CNC(=O)C2CCCCc3nnc(-c4ccccc4)n32)o1", "note": "(centres undefined)", "Potency": "inactive"}
{"smiles": "CC[C@H]1CN(C(=O)Nc2cccc(C(F)(F)F)c2)CC[C@H]1CC(=O)N(CC)C(=O)NCCCN(C)C", "Potency": "inconclusive: 50.1 µM [inhibitor, partial curve, poor fit]"}
